Assay results from PubChem BioAssay AID504466 (National Center for Advancing Translational Sciences (NCATS), 2011).
Out of some 330,000 compounds screened, about 4,200 (1.3%) were called active. Inconclusive means that the source gave no clear call. Such entries were picked first, then a sample of the others. Calls follow the shape of the dose curve; as a rule, active = well fitted activation curve with a large enough effect; inconclusive = small, poorly fitted or top-dose-only effect; inactive = no such curve, though single readings can be large or run the other way. Potencies beside an inconclusive call are fits to weak or partial responses and may not hold up.

Test: qHTS screen for small molecules that induce genotoxicity in human embryonic kidney (HEK293T) cells expressing luciferase-tagged ELG1; also: nearly all actives have a fitted effect of over 60% in size; as to activity change, positive = activation: % of control where 0% means no effect
Details: HEK293T ELG1-luciferase reporter, luminescence, 16 h; series mostly up to 46 µM; activity change, positive = activation: at the top concentration
In short: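 ELG1-luciferase HEK293T cells, 2,000/well; compound pinned in; 16 hr, 37 °C, 5% CO2; ONE-Glo, 30 min RT; luminescence on CCD imager.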
Potency is read from the fitted curve at half-maximal effect; tags tell the direction and shape of the fitted curve.

| Compound | Potency | activity change, positive = activation |
| --- | --- | --- |
| Cc1c2cnn(CC(=O)NC3CCCC3)c(=O)c2c(C)n1Cc1ccccc1 | inconclusive: 20.6 µM [activator, single point] |  |
| CCOc1ccc(C(=O)CSc2nnc(N)s2)cc1 | inconclusive: 23.1 µM [activator, partial curve, poor fit] |  |
| COc1ccc(/C=C2/NC(=O)N(Cc3ccccc3F)C2=O)cc1OC | inconclusive: 29.1 µM [activator, partial curve, poor fit] |  |
| COc1cc(C)c(NC(=O)COc2cccc3c2OC(C)(C)C3)cc1OC |  | inactive: -11.6% |
| O=C(CSC(=S)N1CCOCC1)c1ccccc1 | active: 2.06 µM |  |
| CCN1CCC(N2CCN(c3ccc(Cl)cc3)CC2)CC1 |  | inactive: -1.25% |
| COc1ccc(-c2nc3cc(NC(=O)c4ccc5c(c4)OCO5)ccc3o2)cc1 | inconclusive: 11.6 µM [activator, partial curve, poor fit] |  |
| CN=c1scc(C)n1/N=C/c1ccc(O)c(O)c1O | inconclusive: 5.8 µM [activator, single point] |  |
| CN(CC(=O)Nc1ccc(Cl)c(C(F)(F)F)c1)C(=O)c1cn2ccccc2n1 | active: 23.1 µM |  |
| O=C(Nc1ccc(Br)cc1)N1CCc2ccccc2C1 | inconclusive: 2.91 µM [activator, full curve] |  |
| CCCCn1c(SCc2ccccn2)nc2c1c(=O)n(C)c(=O)n2C |  | inactive: -0.783% |
| Cc1csc(SCCN2C(=O)c3ccccc3C2=O)n1 | inconclusive: 20.6 µM [activator, single point] |  |
| CCOc1ccc2c(c1)c(N=Nc1cccc(C(=O)O)c1)c(O)n2C | inconclusive: 11.6 µM [activator, partial curve, poor fit] |  |
| Cc1ccc2[nH]c(C(=O)N/N=C/c3ccccc3O)c(C)c2c1 | inconclusive: 7.3 µM [activator, partial curve, poor fit] |  |
| O=C(O)Cn1c(SCc2ccccc2)nc2ccccc21 |  | inactive: 7.45% |
| O=C(COc1ccc(Cl)cc1)N1CCCCCCC1 |  | inactive: 0.705% |
| O=C(Cc1ccc(Br)cc1)N1CCc2ccccc2C1 | inconclusive: 14.6 µM [activator, partial curve, poor fit] |  |
| O=C1CCCC(=NNC(=O)c2cc3ccccc3cc2O)C1 | inconclusive: 7.3 µM [activator, partial curve] |  |
| COc1ccc(/C=N/n2c(C)nnc2C)c(OC)c1OC | inconclusive: 23.1 µM [activator, partial curve, poor fit] |  |
| O=C1/C(=C\Nc2ccccc2)CCN1c1ncccn1 | active: 11.6 µM |  |
| CN(Cc1cccs1)C(=O)CNC(=O)c1ccco1 | inconclusive: 20.6 µM [activator, partial curve] |  |
| CCCCc1cc(=O)oc2cc(OCC(=O)Nc3ccccn3)ccc12 | active: 13 µM |  |
| O=C(c1cccs1)N1CCCC(c2nc(-c3ccc(F)cc3)no2)C1 (stereo not drawn) | inconclusive: 16.4 µM [activator, single point] |  |
| CC1CN(C(=O)c2cccc(COc3ccc(Br)cc3)c2)CC(C)O1 (stereo not drawn) | inconclusive: 6.51 µM [activator, partial curve] |  |
| Cc1cc2nn(-c3ccccc3)nc2cc1NC(=O)c1cccs1 | inconclusive: 23.1 µM [activator, partial curve, poor fit] |  |

| Compound | Potency | activity change, positive = activation |
| --- | --- | --- |
| Nc1ccc(-c2nc3ccccc3o2)cc1 | inconclusive: 4.61 µM [activator, partial curve] |  |
| Cc1cc(N/C=C\C(=O)c2ccc(Cl)c(Cl)c2)no1 | inconclusive: 18.4 µM [activator, partial curve, poor fit] |  |
| O=C(Nc1ccc2oc(=O)ccc2c1)c1cc2ccccc2o1 | inconclusive: 4.61 µM [activator, full curve] |  |
| CCOC(=O)C(C(=O)OCC)C1N=C(N)N=C2Oc3ccccc3N21 (stereo not drawn) | inconclusive: 13 µM [activator, partial curve] |  |
| CC(C)c1ccc(C(O)Cc2nc3ccccc3n2C)cc1 (stereo not drawn) | inconclusive: 16.4 µM [activator, partial curve] |  |
| Cc1ccc(C(C)c2c(C)c([N+](=O)[O-])cc(C)c2[N+](=O)[O-])cn1 (stereo not drawn) |  | inactive: -0.697% |
| O=C(Nc1ccc(Cn2cccn2)cc1)c1ccc(COc2ccccc2Br)cc1 |  | inactive: -5.65% |
| Cc1c(C(=O)OC2CCCC2C)[nH]c2c1C(=O)CCC2 (stereo not drawn) | inconclusive: 20.6 µM [activator, partial curve, poor fit] |  |
| CC1SCC(NC(=O)c2ccc(Cl)cc2)CS1 (stereo not drawn) | inconclusive: 23.1 µM [activator, partial curve, poor fit] |  |
| Cn1c(=NC(=O)COc2ccccc2)sc2cccc(F)c21 | inconclusive: 4.11 µM [activator, full curve] |  |
| CC(=O)c1ccc(-c2ccc(C(=O)NC3CC(C)(C)NC(C)(C)C3)o2)cc1 | inconclusive: 16.4 µM [activator, single point] |  |
| C=CCn1c(SCc2c(C)noc2C)nc2ccccc2c1=O | active: 10.3 µM |  |
| COc1ccc(S(=O)(=O)N2CCOC23CCN(C(=O)c2ccccc2OC)CC3)cc1 | inconclusive: 2.31 µM [activator, partial curve, poor fit] |  |
| CC(C)Oc1ccc(NC(=O)c2ccncc2)cc1 | inconclusive: 20.6 µM [activator, single point] |  |
| CN(C)c1ccc(N=Nc2cccc(F)c2)cc1 | active: 0.651 µM |  |
| Cc1ccccc1C(=O)Oc1ccc(-c2csnn2)cc1 | inconclusive: 23.1 µM [activator, partial curve, poor fit] |  |
| Brc1ccc(-c2ccc(/C=N/Nc3nc(N4CCOCC4)nc(N4CCOCC4)n3)o2)cc1 |  | inactive: -6.25% |
| CC(OC(=O)CCN=C1NS(=O)(=O)c2ccccc21)C(=O)Nc1ccc(F)c(F)c1F (stereo not drawn) |  | inactive: -1.95% |
| CN(c1ccc(C(=O)NCCc2ccccc2)cc1)S(C)(=O)=O | active: 1.64 µM |  |
| Cc1ccc(S(=O)(=O)Nc2cccc(-c3ccc(N4CCCCCC4)nn3)c2)cc1C | inconclusive: 11.6 µM [activator, partial curve] |  |
| COc1ccc(/[N+]([O-])=C/c2ccoc2)cc1 | inconclusive: 20.6 µM [activator, partial curve] |  |
| CC(=O)Nc1ccc(OCCOc2ccc(/C=C3\C(=N)N4N=C(C)SC4=NC3=O)cc2)cc1 | inconclusive: 18.3 µM [activator, partial curve, poor fit] |  |
| COc1ccc(N/C=C2\C(=O)CCc3c2oc2cc(Cl)c(O)c(Cl)c32)cc1 | inconclusive: 20.6 µM [activator, partial curve, poor fit] |  |
| CCc1ccc(NC(=O)c2cc(CC(C)C)on2)cc1 | active: 16.4 µM |  |
| CCOc1ccc(OCc2cccc(C(=O)N3CCOCC3)c2)cc1 | active: 0.13 µM |  |

| Compound | Potency | activity change, positive = activation |
| --- | --- | --- |
| O=C(/C=C/c1ccco1)Oc1ccc(C(=S)N2CCOCC2)cc1 |  | inactive: 16.7% |
| c1ccc(COc2ccc(Nc3ncnc4nc[nH]c34)cc2)cc1 | inconclusive: 8.2 µM [activator, partial curve] |  |
| CCc1ccc2[nH]c(=O)c(CN(CC3CCCO3)C(=S)NCc3ccco3)cc2c1 (stereo not drawn) |  | inactive: -5.36% |
| CC(C)(C)c1ccc(C(=O)NCCCNC(=O)c2ccco2)cc1 |  | inactive: 1.73% |
| Cc1nc2ccc(NC(=O)c3ccc(N4C(=O)CCC4=O)cc3)cc2s1 | inconclusive: 18.3 µM [activator, partial curve, poor fit] |  |
| Cc1ccc(Nc2ncc3c(n2)CC(C)CC3=O)c(C)c1 (stereo not drawn) | active: 7.3 µM |  |
| CC1CCCCC1NC(=O)COc1ncnc2sccc12 (stereo not drawn) |  | inactive: -2.25% |
| Cc1cc(/C=C2/SC(=O)N(CC(=O)N3CCOCC3)C2=O)c(C)n1-c1ccccc1F | inconclusive: 9.2 µM [activator, partial curve] |  |
| COC(=O)CC(=O)CSc1nc2c(cc1C#N)CCCCC2 | inconclusive: 20.6 µM [activator, partial curve, poor fit] |  |
| CC(Cc1ccccc1)C(=O)Nc1ccc(Br)cc1 (stereo not drawn) | inconclusive: 20.6 µM [activator, partial curve, poor fit] |  |
| COc1ccc2[nH]c3c(c2c1)CCN1C(=O)C(CC(=O)NCCC2=CCCCC2)C[C@H](C(=O)N2CCOCC2)[C@@]31C (stereo partly drawn) |  | inactive: 3.85% |
| Cc1ccccc1NC(=O)c1ccc(NC(=O)c2ccco2)cc1 | inconclusive: 23.1 µM [activator, partial curve, poor fit] |  |
| O=C(NCCc1ccc(F)cc1)c1ccc2nccnc2c1 | inconclusive: 2.06 µM [activator, full curve, poor fit] |  |
| COc1ccc(NC(=S)NCC(c2ccco2)N2CCCC2)cc1 (stereo not drawn) | inconclusive: 23.1 µM [activator, partial curve, poor fit] |  |
| Cc1cccc(OCC(=O)O/N=C(\N)Cc2cccs2)c1 |  | inactive: -1.3% |
| Cc1c(C)c2ccc(OCC(=O)Nc3nccs3)cc2oc1=O | active: 1.03 µM |  |
| Cc1cccc(COc2ccccc2C(=O)NC2CCC(O)CC2)c1 (stereo not drawn) |  | inactive: 13.1% |
| Cn1cccc1C(=O)NCCc1ccc(Cl)cc1 | inconclusive: 14.6 µM [activator, partial curve] |  |
| CO/N=C/C(NC(=O)c1ccc(C(F)(F)F)cc1)C(=O)OC (stereo not drawn) | inconclusive: 2.59 µM [activator, partial curve, poor fit] |  |
| COc1cccc2c(Cl)c(CCCl)c(C)nc12 |  | inactive: -7.65% |
| COC(=O)Cn1c(C)nc2c(sc3nc(C)cc(C)c32)c1=O | active: 16.4 µM |  |
| Cc1cc(C)n2c(Nc3ccc4c(c3)OCCO4)c(-c3ccc(C)o3)nc2n1 | inconclusive: 16.4 µM [activator, partial curve] |  |
| CC(C)(C)c1nnc2sc(SCC(=O)c3ccc(Cl)cc3)nn2c1=O | inconclusive: 29.1 µM [activator, partial curve, poor fit] |  |
